Our source for the binding signal values is paper PMC9911399, “Two distinct binding modes provide the RNA-binding protein RbFox with extraordinary sequence specificity”.

Positions count from the first letter of the chain named. The list shows a part of the results.

The chains are these.
T1: RBFOX1 RRM (Homo sapiens, UniProt Q9NWB1 109-208)
T1 sequence: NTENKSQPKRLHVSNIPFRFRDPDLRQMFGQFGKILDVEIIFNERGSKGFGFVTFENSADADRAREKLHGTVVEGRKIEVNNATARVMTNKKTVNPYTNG

B1: UUAGAUA (DNA:RNA)
RNA: GGGAGACCGGAAUUCAGAUUGUCCUUAGAUAUUAAAUCCCGUCGUAGCCACCA
DNA 1: CAATCTGAATTCCGGTCTCCC
DNA 2: TGGTGGCTACGACGGGATT
B2: GUAGUCU (DNA:RNA)
RNA: B1 RNA with U25G, A29U, U30C, A31U
DNA 1: CAATCTGAATTCCGGTCTCCC
DNA 2: TGGTGGCTACGACGGGATT
B3: UCUCUAC (DNA:RNA)
RNA: B1 RNA with U26C, A27U, G28C, A29U, U30A, A31C
DNA 1: CAATCTGAATTCCGGTCTCCC
DNA 2: TGGTGGCTACGACGGGATT
B4: CUACUGG (DNA:RNA)
RNA: B1 RNA with U25C, G28C, A29U, U30G, A31G
DNA 1: CAATCTGAATTCCGGTCTCCC
DNA 2: TGGTGGCTACGACGGGATT
B5: ACAUGUA (DNA:RNA)
RNA: B1 RNA with U25A, U26C, G28U, A29G
DNA 1: CAATCTGAATTCCGGTCTCCC
DNA 2: TGGTGGCTACGACGGGATT
B6: CGAACUA (DNA:RNA)
RNA: B1 RNA with U25C, U26G, G28A, A29C
DNA 1: CAATCTGAATTCCGGTCTCCC
DNA 2: TGGTGGCTACGACGGGATT
B7: AUUGAGU (DNA:RNA)
RNA: B1 RNA with U25A, A27U, U30G, A31U
DNA 1: CAATCTGAATTCCGGTCTCCC
DNA 2: TGGTGGCTACGACGGGATT
B8: UAAUCUU (DNA:RNA)
RNA: B1 RNA with U26A, G28U, A29C, A31U
DNA 1: CAATCTGAATTCCGGTCTCCC
DNA 2: TGGTGGCTACGACGGGATT
B9: UACCAAG (DNA:RNA)
RNA: B1 RNA with U26A, A27C, G28C, U30A, A31G
DNA 1: CAATCTGAATTCCGGTCTCCC
DNA 2: TGGTGGCTACGACGGGATT
B10: UAUUAAC (DNA:RNA)
RNA: B1 RNA with U26A, A27U, G28U, U30A, A31C
DNA 1: CAATCTGAATTCCGGTCTCCC
DNA 2: TGGTGGCTACGACGGGATT
B11: AAUGAAU (DNA:RNA)
RNA: B1 RNA with U25A, U26A, A27U, U30A, A31U
DNA 1: CAATCTGAATTCCGGTCTCCC
DNA 2: TGGTGGCTACGACGGGATT
B12: UUCUGGU (DNA:RNA)
RNA: B1 RNA with A27C, G28U, A29G, U30G, A31U
DNA 1: CAATCTGAATTCCGGTCTCCC
DNA 2: TGGTGGCTACGACGGGATT
B13: GGGGAAU (DNA:RNA)
RNA: B1 RNA with U25G, U26G, A27G, U30A, A31U
DNA 1: CAATCTGAATTCCGGTCTCCC
DNA 2: TGGTGGCTACGACGGGATT
B14: AGCAGUG (DNA:RNA)
RNA: B1 RNA with U25A, U26G, A27C, G28A, A29G, A31G
DNA 1: CAATCTGAATTCCGGTCTCCC
DNA 2: TGGTGGCTACGACGGGATT
B15: UGGCCUC (DNA:RNA)
RNA: B1 RNA with U26G, A27G, G28C, A29C, A31C
DNA 1: CAATCTGAATTCCGGTCTCCC
DNA 2: TGGTGGCTACGACGGGATT
B16: AGAACAC (DNA:RNA)
RNA: B1 RNA with U25A, U26G, G28A, A29C, U30A, A31C
DNA 1: CAATCTGAATTCCGGTCTCCC
DNA 2: TGGTGGCTACGACGGGATT
B17: UCCUCCU (DNA:RNA)
RNA: B1 RNA with U26C, A27C, G28U, A29C, U30C, A31U
DNA 1: CAATCTGAATTCCGGTCTCCC
DNA 2: TGGTGGCTACGACGGGATT
B18: CUUUUCC (DNA:RNA)
RNA: B1 RNA with U25C, A27U, G28U, A29U, U30C, A31C
DNA 1: CAATCTGAATTCCGGTCTCCC
DNA 2: TGGTGGCTACGACGGGATT
B19: AGGAGCC (DNA:RNA)
RNA: GGGAGACCGGAAUUCAGAUUGUCCAGGAGCCUUAAAUCCCGUCGUAGCCACCA
DNA 1: CAATCTGAATTCCGGTCTCCC
DNA 2: TGGTGGCTACGACGGGATT
B20: AGCGCGA (DNA:RNA)
RNA: B19 RNA with G27C, A28G, G29C, C30G, C31A
DNA 1: CAATCTGAATTCCGGTCTCCC
DNA 2: TGGTGGCTACGACGGGATT
B21: CUCAUGU (DNA:RNA)
RNA: B19 RNA with A25C, G26U, G27C, G29U, C30G, C31U
DNA 1: CAATCTGAATTCCGGTCTCCC
DNA 2: TGGTGGCTACGACGGGATT
B22: UAACCAC (DNA:RNA)
RNA: B1 RNA with U26A, G28C, A29C, U30A, A31C
DNA 1: CAATCTGAATTCCGGTCTCCC
DNA 2: TGGTGGCTACGACGGGATT
B23: UCAGCCU (DNA:RNA)
RNA: B1 RNA with U26C, A29C, U30C, A31U
DNA 1: CAATCTGAATTCCGGTCTCCC
DNA 2: TGGTGGCTACGACGGGATT
B24: UGGGUUU (DNA:RNA)
RNA: B1 RNA with U26G, A27G, A29U, A31U
DNA 1: CAATCTGAATTCCGGTCTCCC
DNA 2: TGGTGGCTACGACGGGATT
B25: CGCGUUU (DNA:RNA)
RNA: B1 RNA with U25C, U26G, A27C, A29U, A31U
DNA 1: CAATCTGAATTCCGGTCTCCC
DNA 2: TGGTGGCTACGACGGGATT
B26: CCUCUGU (DNA:RNA)
RNA: GGGAGACCGGAAUUCAGAUUGUCCCCUCUGUUUAAAUCCCGUCGUAGCCACCA
DNA 1: CAATCTGAATTCCGGTCTCCC
DNA 2: TGGTGGCTACGACGGGATT
B27: AGCGUCA (DNA:RNA)
RNA: B19 RNA with G27C, A28G, G29U, C31A
DNA 1: CAATCTGAATTCCGGTCTCCC
DNA 2: TGGTGGCTACGACGGGATT
B28: AGAAGAU (DNA:RNA)
RNA: B19 RNA with G27A, C30A, C31U
DNA 1: CAATCTGAATTCCGGTCTCCC
DNA 2: TGGTGGCTACGACGGGATT
B29: CGCCGUC (DNA:RNA)
RNA: B19 RNA with A25C, G27C, A28C, C30U
DNA 1: CAATCTGAATTCCGGTCTCCC
DNA 2: TGGTGGCTACGACGGGATT
B30: AACGUGC (DNA:RNA)
RNA: B19 RNA with G26A, G27C, A28G, G29U, C30G
DNA 1: CAATCTGAATTCCGGTCTCCC
DNA 2: TGGTGGCTACGACGGGATT
B31: GCCCUUC (DNA:RNA)
RNA: B26 RNA with C25G, U27C, G30U, U31C
DNA 1: CAATCTGAATTCCGGTCTCCC
DNA 2: TGGTGGCTACGACGGGATT

The experiment deals with T1, RBFOX1 RRM. As to the kind of experiment: EMSA; HiTS-Eq, 1 nM pool, 10 min; buffer printed only for the single-RNA assays: 10 mM Tris pH 7.5, 150 mM NaCl, 3.4 mM EDTA, 0.001% NP-40, 30 C. The note with it: tags: His6 N-terminal (pET28a); label: 5' 32P. The procedure, abridged:
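Purified RbFox RRM (wild type or mutant) was equilibrated for 10 min in 50 µL with 1 nM of a 5′-radiolabelled pool of RNA with 7 randomized nucleotides, its flanks annealed to DNA oligonucleotides, across increasing protein concentrations. Free RNA was separated by 8% native PAGE, excised, reverse-transcribed, PCR-barcoded and sequenced on an Illumina HiSeq 2500. Relative association constants came from read-count changes of each variant against the control reaction, normalised to the cognate motif.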
For the molecule B1, the binding signal was 0.00796 KA relative to UGCAUGU.
For the molecule B2, the binding signal was 0.0147 KA relative to UGCAUGU.
As for B3, the binding signal is 0.0026 KA relative to UGCAUGU.
Then B4, with 0.0108 KA relative to UGCAUGU; and B5, with 0.002 KA relative to UGCAUGU.
With B6, the binding signal was 0.00269 KA relative to UGCAUGU.
Then B7, with 0.0102 KA relative to UGCAUGU; and B8, with 0.00684 KA relative to UGCAUGU; and B9, with 0.00503 KA relative to UGCAUGU.
For the molecule B10, the binding signal was 0.0111 KA relative to UGCAUGU.
On to B11, for which the binding signal was 0.0102 KA relative to UGCAUGU.
On to B12, for which the binding signal is 0.0132 KA relative to UGCAUGU.
As to B13, the binding signal is 0.0354 KA relative to UGCAUGU.
With B14, the binding signal was 0.0135 KA relative to UGCAUGU.
For B15, the binding signal was 0.0279 KA relative to UGCAUGU.
On to B16, for which the binding signal was 0.00173 KA relative to UGCAUGU.
Turning to B17, the binding signal is 0.00614 KA relative to UGCAUGU.
On to B18, for which the binding signal was 0.00556 KA relative to UGCAUGU.
With B19, the binding signal was 0.0149 KA relative to UGCAUGU.
B20: the binding signal was 0.0118 KA relative to UGCAUGU.
Then B21, with 0.00582 KA relative to UGCAUGU.
For B22, the binding signal is 0.00231 KA relative to UGCAUGU.
For the molecule B23, the binding signal was 0.00721 KA relative to UGCAUGU.
On to B24, for which the binding signal was 0.0379 KA relative to UGCAUGU.
Consider B25, for which the binding signal is 0.0129 KA relative to UGCAUGU.
For B26, the binding signal is 0.0147 KA relative to UGCAUGU.
With B27, the binding signal is 0.00417 KA relative to UGCAUGU.
As for B28, the binding signal is 0.00881 KA relative to UGCAUGU.
As to B29, the binding signal is 0.0103 KA relative to UGCAUGU.
As for B30, the binding signal was 0.0114 KA relative to UGCAUGU.
Consider B31, for which the binding signal is 0.0106 KA relative to UGCAUGU.
